Experimental data: the supplement of paper PMC11417369
Some of the results follow.

tested on: PF3D7_0420300 AP2 domain 1 (GST-tagged); assay: gcPBM binding intensity (ln(normalized median fluorescence intensity)); higher = stronger DNA binding
Procedure, shortened: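 Each value is the highest Masliner-normalised natural-log median intensity across replicate spots of either orientation of a probe. The probes were primer-extended double-stranded 36-bp intergenic genomic sequences on an Agilent 4 × 180k array, alongside negative controls, exposed for 1 h to GST-tagged P. falciparum DNA-binding domains expressed in E. coli. Bound protein was picked up with Alexa488 anti-GST antibody and scanned at 488 nm.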

| Sequence | gcPBM binding intensity (ln) |
| --- | --- |
| TTATAAATAATGAGAAACATTAAATTTAATCATAAA [CACACA_negctrl_site523] | 8.93 |
| TTTAGTGTTATAAAAAGTACATAATAATTCCTTTTC [XGTACX_site3208] | 8.95 |
| AAAAATTCAATAGGACGTACTAAAACATTCATTAAT [XGTACX_site1712] | 9.34 |
| TACTATATATATATATATATATATATATATATTTAT [GTGCAC_negctrl_site593] | 8.93 |
| AGCCCAAAAAAGTAGACATGCAAAAACTTTACAACT [TGCATGCA_site550] | 9.17 |
| AAAAAAAAAAAGAAGGGTACATATTATATATAATAT [XGTACX_site6204] | 9.43 |
| TATATATAAACATAATGTACATATAATAAGTAATAT [XGTACX_site497] | 9.45 |
| CACGTGAAAATACAAGCATGCAAGCTTTTTTTTTCT [TGCATGCA_site642] | 9.01 |
| AATGAGAATTTTATTACACACTTTAATATATTTTCA [CACACA_site784] | 9.28 |
| AATTTTCAATAGTATACACACAATTCTATAAATATA [CACACA_site6650] | 9.29 |
| AATTTTTTTATAGCACGTACAAAAATACAAAATACA [XGTACX_site1569] | 9.13 |
| AAAAAAATAAATAAATGTACACATATATATATATAT [XGTACX_site4350] | 9.08 |
| ATCATTTATATTTTATGTACATATATAATTATATTT [XGTACX_site2129] | 9.52 |
| AGTGAAATTTTAGTCACACAGTTTTATCTTTAAGAA [CACACA_site5202] | 9.01 |
| TTATGTCTAATGAAATGTACATGAATAAATTAAAGT [XGTACX_site8138] | 9.42 |
| TAGAGGAATATAATATGTACATAATATAATGTATAT [XGTACX_site2838] | 9.36 |
| AATTATATAAGCCACGCATGTGTGCATAAAAATACA [TGCATGCA_site114] | 9.38 |
| ATATATATATATATTGCACACATATAAATATATATA [CACACA_site8167] | 9.26 |
| GAAAAATTTAATTATTGTACGTTTCATCTATATTTA [XGTACX_site414] | 9.33 |
| TTTTTGTTTTTTTTGTGTACTTATCAAATATATATA [XGTACX_site7273] | 9.47 |
| CAAAAAAAATTATACACACACACACCCATATATATA [CACACA_site1044] | 10.2 |
| TACTATATATTATATAGTACATAAGATATACAACAT [XGTACX_site2929] | 9.32 |

| Sequence | gcPBM binding intensity (ln) |
| --- | --- |
| AAGAAAATTAACCCATGTACTTATGTAGATAGCAAG [XGTACX_site1049] | 9.48 |
| TAAAACTTAATATAAACACACAAAAATTAATAAATA [CACACA_site4370] | 9.6 |
| CAATATTATAGATATACACACATAATGTGTAAAAAC [CACACA_site6631] | 9.76 |
| TCTTGATCTTATATATATCTACAATATTTTATACAT [TGCATGCA_negctrl_site569] | 9.48 |
| ATTACAAATATAATATGTACTTAAATATAATTAAAA [XGTACX_site7038] | 9.02 |
| ATTACTAAAACAAAATGTACATATGATTTAAGAAAA [XGTACX_site5992] | 9.05 |
| TTTTTTTTTTAGAGTACACACTTTTTTACATTTATG [CACACA_site5990] | 9.33 |
| TAACTTCAAAAATCTTGTACATAAATATATAAAACA [XGTACX_site8574] | 9.1 |
| AATTTTGTCCTATGTTGTACTATTTTGCTCTATTTT [XGTACX_site7139] | 9.84 |
| ATAAATAGTATTATATGTACACATAATATTTATAAA [XGTACX_site4751] | 9.21 |
| TTTCTCTCTTATAAAATACACACGAACAATCATATT [CACACA_site509] | 9.29 |
| AAAAATGGTGTTAACACACACATATATATATATATA [CACACA_site571] | 9.43 |
| TTAATATAGGGAAAAAAAAGAAAATCGAAAATGTGT [CACACA_negctrl_site834] | 9.57 |
| CACATTTTTTAAATATTTTTCTACTCCATAATGTTT [CACACA_negctrl_site557] | 9.3 |
| TATAATTATGATGATAGTACGTATGAGTTCAAAACA [XGTACX_site4211] | 9.3 |
| ATAGTTACACGCCAAAAAAAAAAAAAAAAAAAAAAA [CACACA_negctrl_site1133] | 8.54 |
| TTAAAATGATTGTTACTTTTTTTTCCGTTTTCTTAA [CACACA_negctrl_site1195] | 9.19 |
| CTTAAAAAAATATATTGTACATATATATATACAACT [XGTACX_site1281] | 9.12 |
| TATATTCCCATATAACGTACATATGAGACACCAACT [XGTACX_site8099] | 9.48 |
| GTTTATATATTATAAAGTACATATGAATTTAATAAT [XGTACX_site3601] | 9.01 |
| AAAAAATAAATAAACATAAATAAATAAATAAATATA [XGTACX_negctrl_site340] | 9.41 |
| ATTTCAAAATATAGCTGTACAAAAAATGTAGATATA [XGTACX_site5843] | 9.36 |

| Sequence | gcPBM binding intensity (ln) |
| --- | --- |
| GATCATTCTAAATATAAACACACATAAATATATACA [CACACA_site9108] | 9.48 |
| ATAATATAATAATATTGTACATGGTCAAATATGAAA [XGTACX_site8390] | 9.19 |
| ATAAAACTTATTTAACGTACATATTTTATATACCTT [XGTACX_site5353] | 9.37 |
| TATAAAATAAATAACAAAAAAAATAAAATAAAAATA [TGCATGCA_negctrl_site297] | 9.41 |
| TTTTTTTTTTAGTATGAACACACATATATATTATAA [CACACA_site8957] | 9.23 |
| AAAAAATACATCAAAAGAAACATATATATATATATA [GTGCAC_negctrl_site719] | 9.23 |
| TATAGCAAAATATTCACACAAACTATTAATAAAAGT [CACACA_site5795] | 9.55 |
| AATGGTTATAATATATGTACATATAAATATACTGAA [XGTACX_site8533] | 9.26 |
| ATATAAGTACCTATAACACACATATATTATAAGTAT [CACACA_site7281] | 9.6 |
| TAGAATAAATTAATTACACACGGAATTATATATATA [CACACA_site1616] | 9.51 |
| TATCATATATTATAGCGTACTTATTTATTTATTTAT [XGTACX_site1676] | 9.43 |
| AAAAAAAAAAAAAAAAGTACATGAAAAAAAGAAGAA [XGTACX_site8384] | 9.63 |
| TATAATAGTTCATAGGTGCAATATAATAAATTTATA [GTGCAC_site9573] | 9.13 |
| TTGTATTAAAATCAAGTGCATATAATTTAAGTTCAT [GTGCAC_site9495] | 9.04 |
| CTTTGGTTATAACACACATGCACACGTAAATAAATA [TGCATGCA_site976] | 9.55 |
| CATCACCTTTTTAAATGTACGCATAATACCAAAAAA [XGTACX_site1587] | 9.18 |
| GTAGGTTACAAAATGTGAGAGAAGCAAATATAGAAA [CACACA_negctrl_site1819] | 9.31 |
| TTTTGTTTTTAGTTTATACACACCATATTAATATAA [CACACA_site3102] | 9.52 |
| CTGTATTTATTTTTCTGTACCAAATCACCCCTTGTA [XGTACX_site395] | 9.19 |
| TATATTTATAAATGAACACACACGCAATTTGAATCG [CACACA_site3370] | 9.74 |
| TACGTTTTATGACACACACACAAAAAAAAAAAAAAA [CACACA_site7764] | 9.49 |
| GATGTATAAAATAATACATGCATGTCCTACATATAT [TGCATGCA_site155] | 9.32 |

| Sequence | gcPBM binding intensity (ln) |
| --- | --- |
| TTTCTTTTTCGATATACACACTGTATGTGTCTAAAA [CACACA_site6054] | 9.3 |
| TTTCCGGTAATATGGAAATATATGTGGGTTTTTTTT [CACACA_negctrl_site1536] | 9.37 |
| ACTATTTTAAAAATATGTACATACGTTGTAATTTAA [XGTACX_site7999] | 9.16 |
| CGAAGGATAAACATACGTACATATATGTGTATAATA [XGTACX_site779] | 9.28 |
| AATCGAAATCGTGCACGGACACATGCAGTAGCCGAG [XGTACX_site6001] | 9.23 |
| TATACCTATAAATACACACACATATATAAATAAATA [CACACA_site6730] | 10 |
| ATATATATACACAATAGTACGTGTAATATTATTATT [XGTACX_site2151] | 9.35 |
| GAAGTTAGTGTTGACTGTACATATATATGTATATAT [XGTACX_site7243] | 9.37 |
| TTTTCTTTTTGTTCGTGTACACACATGAAATTTATA [XGTACX_site3301] | 9.51 |
| AAACGTACATAATACACACACATGTATACATATAAA [CACACA_site2048] | 9.89 |
| ATATTTTTATATGAGGTGCATATAATGACAATTAAG | 9.14 |
| TCTTTTTATGTTCTAGAGCATTTTATTATTTAACAT [CACACA_negctrl_site1699] | 9.32 |
| ATACTATTTAAATGGGTGCTAAAAATAACAAAAATT | 9.34 |
| AATGAAAAGTAAAATACACACACATAATATAATTTA [CACACA_site8608] | 10 |
| TGTGTAAAAATCATGGGTACACATTTTGATACCAAT [XGTACX_site1779] | 9.34 |
| AAACTTGACGAACACACACACACATATATAAAAAAA [CACACA_site6494] | 10.1 |
| TTTTTATAAAAAATTTACACTATATGACAGAAGTAA [XGTACX_negctrl_site481] | 8.94 |
| ATAAATTAAAAACACACACACATCTGGATACCCCTA [CACACA_site5780] | 10.1 |
| GGTGGTAAAAAACCTGCATGTCGAAATATTAAATAC [TGCATGCA_site33] | 9.25 |
| AAAAAAAAAAAAAAGAGTACTCATATAAAAATATAA [XGTACX_site6551] | 8.97 |
| AAGAAGAAACAAAACACACACAGTCTTCTTTTCTAT [CACACA_site3088] | 9.9 |
| TACAGAATTGTATATAGTACATAAAACAATATATAT [XGTACX_site7275] | 9.37 |
